{"source": "the supplement of paper PMC4967469", "assay_in_all_cases": "Viability of human cancer cell lines after 72 h of drug (GDSC screen)", "key": {"PLX4720": {"compound": "CCCS(=O)(=O)Nc1ccc(F)c(C(=O)c2c[nH]c3ncc(Cl)cc23)c1F [PLX4720]", "conditions": "top dose 10 µM", "protocol": "(§1)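 Human cancer cell lines in 384-well plates, medium with 10% serum, drug for 72 h over a 256-fold dose range (nine 2-fold or five 4-fold steps up to the top dose). Adherent lines were fixed and stained with the nucleic acid dye Syto60, suspension lines read with resazurin; signal relative to control wells, capped at 0 and 100%. One two-parameter sigmoid per drug and line, fitted in a mixed model over all curves with the slope shared within a line.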"}, "TPCA-1": {"compound": "NC(=O)Nc1sc(-c2ccc(F)cc2)cc1C(N)=O [TPCA-1]", "conditions": "top dose 20 µM", "protocol": "as §1"}, "Pyrimethamine": {"compound": "CCc1nc(N)nc(N)c1-c1ccc(Cl)cc1 [Pyrimethamine]", "conditions": "top dose 20 µM; top dose inferred", "protocol": "as §1"}, "Epothilone B": {"compound": "C/C(=C\\c1csc(C)n1)[C@@H]1C[C@@H]2O[C@]2(C)CCC[C@H](C)[C@H](O)[C@@H](C)C(=O)C(C)(C)[C@@H](O)CC(=O)O1 [Epothilone B]", "conditions": "top dose 0.032 µM; top dose inferred", "protocol": "as §1"}, "PHA-793887": {"compound": "CC(C)CC(=O)Nc1n[nH]c2c1CN(C(=O)C1CCN(C)CC1)C2(C)C [PHA-793887]", "conditions": "top dose 10.24 µM", "protocol": "as §1"}, "Imatinib": {"compound": "Cc1ccc(NC(=O)c2ccc(CN3CCN(C)CC3)cc2)cc1Nc1nccc(-c2cccnc2)n1 [Imatinib]", "conditions": "top dose 2 µM", "protocol": "as §1"}, "Y-39983": {"compound": "C[C@@H](N)c1ccc(C(=O)Nc2ccnc3[nH]ccc23)cc1 [Y-39983]", "conditions": "top dose 20 µM; top dose inferred", "protocol": "as §1"}, "AZD-0530": {"compound": "CN1CCN(CCOc2cc(OC3CCOCC3)c3c(Nc4c(Cl)ccc5c4OCO5)ncnc3c2)CC1 [AZD-0530]", "conditions": "top dose 2 µM", "protocol": "as §1"}, "[1]": {"conditions": "screen: GDSC drug entry 1371, top dose inferred"}}, "note": "IC50 is the fitted dose that halves viability relative to control wells, and lower means more sensitive; a fit beyond the top or the lowest dose is shown as a bound at that dose. AUC, from the same fit, is the share of area under the viability curve across the 256-fold dose range: 1 means no effect, lower means more sensitive. For part of these data: Where the top dose is marked as inferred, it was calculated from the reported fits. For part of these data: An entry number marks a drug with two screens in the source, which often give different values.", "data": [{"cell line": "VA-ES-BJ (soft tissue, adherent)", "values": [{"measurement": "AUC", "setting": "PLX4720; screen: GDSC drug entry 1036", "value": 0.866}, {"measurement": "IC50", "setting": "PLX4720; screen: GDSC drug entry 1036", "value": 9.76, "unit": "µM"}, {"measurement": "AUC", "setting": "PLX4720; [1]", "value": 0.912}, {"measurement": "IC50", "setting": "PLX4720; [1]", "value": "> 10", "unit": "µM"}, {"measurement": "AUC", "setting": "TPCA-1", "value": 0.957}, {"measurement": "IC50", "setting": "TPCA-1", "value": "> 20", "unit": "µM"}, {"measurement": "AUC", "setting": "Pyrimethamine", "value": 0.824}, {"measurement": "IC50", "setting": "Pyrimethamine", "value": 12.7, "unit": "µM"}, {"measurement": "AUC", "setting": "Epothilone B", "value": 0.57}, {"measurement": "IC50", "setting": "Epothilone B", "value": 0.00313, "unit": "µM"}, {"measurement": "AUC", "setting": "PHA-793887", "value": 0.897}, {"measurement": "IC50", "setting": "PHA-793887", "value": "> 10.2", "unit": "µM"}, {"measurement": "AUC", "setting": "Imatinib", "value": 0.98}, {"measurement": "IC50", "setting": "Imatinib", "value": "> 2", "unit": "µM"}, {"measurement": "AUC", "setting": "Y-39983", "value": 0.98}, {"measurement": "IC50", "setting": "Y-39983", "value": "> 20", "unit": "µM"}, {"measurement": "AUC", "setting": "AZD-0530", "value": 0.95}, {"measurement": "IC50", "setting": "AZD-0530", "value": "> 2", "unit": "µM"}]}]}
